# The campaign covered roughly 110,000 compounds. About 230 (0.21%) showed an effect of 50% or more. This is one part of the list.
# Target: DPAP1 (Plasmodium falciparum, UniProt Q8IIJ9)
# Assay: primary screen, percent inhibition; read by cleavage of a fluorogenic dipeptide substrate; higher = more effect of the substance
# Parameters: species or system P. falciparum D10 trophozoite lysates; single well
# 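Further: 30 min substrate incubation versus DMSO and 10 µM JCP410 controls.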
# Chain of DPAP1 (Q8IIJ9 whole entry, looked up): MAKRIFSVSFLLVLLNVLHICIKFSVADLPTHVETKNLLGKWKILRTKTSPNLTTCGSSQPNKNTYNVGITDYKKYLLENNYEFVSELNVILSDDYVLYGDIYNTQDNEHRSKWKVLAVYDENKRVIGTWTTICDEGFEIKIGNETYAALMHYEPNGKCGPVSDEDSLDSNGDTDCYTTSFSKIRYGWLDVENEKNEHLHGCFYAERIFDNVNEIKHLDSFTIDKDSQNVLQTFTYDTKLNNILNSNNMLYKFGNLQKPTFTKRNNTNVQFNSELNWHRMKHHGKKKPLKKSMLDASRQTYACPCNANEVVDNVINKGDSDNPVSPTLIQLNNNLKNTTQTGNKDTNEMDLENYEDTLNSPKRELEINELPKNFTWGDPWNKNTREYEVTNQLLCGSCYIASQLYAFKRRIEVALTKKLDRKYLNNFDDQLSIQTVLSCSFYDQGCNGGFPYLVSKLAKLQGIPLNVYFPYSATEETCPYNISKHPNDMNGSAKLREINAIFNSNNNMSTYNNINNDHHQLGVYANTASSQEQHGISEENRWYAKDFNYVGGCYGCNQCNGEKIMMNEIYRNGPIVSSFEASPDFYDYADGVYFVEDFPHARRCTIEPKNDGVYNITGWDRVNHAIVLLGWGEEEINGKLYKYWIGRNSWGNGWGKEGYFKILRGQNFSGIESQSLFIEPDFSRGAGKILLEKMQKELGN
row,SMILES,% Inhibition @ 10 uM
1,CCCCSc1nnc(-c2ccc(Cl)cc2Cl)o1,-5.32%
2,O=C(Nc1ccc(CN2CCOCC2)cc1)c1ccc2ccccc2c1,-3.45%
3,CCSc1nc2c(c(=O)n(C)c(=O)n2C)n1Cc1ccccc1C,3.46%
4,C/C(=N/NC(N)=S)c1cc(C(C)(C)C)cc2c1CCC2(C)C,-3.13%
5,Cn1nc(-c2ccccc2F)c2cc(C(=O)NCCCN3CCc4ccccc4C3)sc21,-1.43%
6,CCn1nc(-c2ccc(C)cc2)nc2c(=O)n(C)c(=O)nc1-2,-2.85%
7,Cc1ccc(C2=NN(CC(=O)NCc3cccnc3)C(=O)CC2)cc1,-6.75%
8,Cc1ccc(-c2cc(-c3ccccc3)nc(/C(C#N)=C(\N)O)n2)cc1,1.87%
9,COc1cc(CN2CCSCC2)cc(OC)c1O,2.33%
10,Cc1ccc(C(C)C)c(OCCCn2cnc3ccccc32)c1,-5.92%
11,COc1c(C)cccc1C(=O)Nc1ccccc1N1CCN(C(=O)c2ccccc2)CC1,-2.19%
12,O=c1c2ccccc2c(-c2ccccc2)nn1-c1ccc(Cl)c(Cl)c1,-8.19%
13,CCOc1cc(/C=C2\C(=N)N3N=C(N4CCCC4)SC3=NC2=O)ccc1OCc1ccccc1,0.0579%
14,Cc1ccc(C(C)C)c(Oc2ccc(C#N)cc2)c1,4.17%
15,O=C(CN1N=C(c2ccccc2)CCC1=O)NC1CC1,2.18%
16,CCOc1ccc(CC(=O)N2N=C(C)CC2(O)C(F)(F)F)cc1 (centres unmarked),-8.06%
17,O=C(COc1ccccc1)N1CCN(Cc2ccc3c(c2)OCO3)CC1,-6.6%
18,COc1ccccc1-c1c(C)nn2c(NCCC3=CCCCC3)cc(C)nc12,-5.58%
19,CN(C)Cc1c(O)ccc2[nH]cnc12,6.7%
20,Cc1c(C)c2cc(Cl)c3c(c2oc1=O)CN(Cc1ccco1)CO3,-0.808%
21,N#CCNC(=O)C(Cc1ccc(C(=O)c2ccccc2)cc1)NC(=O)OCc1ccccc1 (centres unmarked),-1.82%
22,CCSc1nnc(-c2ccc(Cl)cc2Cl)o1,34%

row,SMILES,% Inhibition @ 10 uM
1,CC1CCN(c2ccc3nnc(CCC(=O)NCc4ccc(F)cc4)n3n2)CC1,-4.02%
2,CC(C)N1CCC(N2CCCCC2)CC1,-2.48%
3,CC(NC(=O)c1ccco1)c1nc(-c2ccc(Cl)cc2)no1 (centres unmarked),2.41%
4,CCC(=O)NCCc1nc2ccccc2n1Cc1ccccc1F,4.77%
5,CCN(CC)C(=O)C1CCCN(Cc2ccc(Cl)cc2)C1 (centres unmarked),-0.127%
6,Cc1c(CNC(=O)c2cc3nc(-c4ccc5c(c4)OCO5)cc(C(F)(F)F)n3n2)cnn1C,2.49%
7,O=C(Nc1ccccc1)N1CCCCCC1,-3.45%
8,COc1ccccc1N1CCN(C(=O)c2cc(OC)c(OC)c(OC)c2)CC1,-8.11%
9,N#C/C(=C/c1cccnc1)c1nc(-c2ccc(Cl)cc2)cs1,2.45%
10,COc1ccc2ccccc2c1/C=C1\NC(=S)NC1=O,21.5%
11,COc1ccc(CN2CCN(c3cccc(C)c3C)CC2)cc1OC,9.04%
12,N#Cc1cnn2c(C(F)(F)F)cc(-c3ccc4ccccc4c3)nc12,-3.63%
13,CCOc1ccccc1NC(=O)c1ccccc1F,1.08%
14,Cc1ccccc1-c1nc(CS(=O)(=O)CC(=O)N2CCOCC2)c(C)o1,3.19%
15,CC(=O)c1c(C)nc2ccccn12,4.26%
16,NC(=O)c1cc(S(=O)(=O)NCCN2CCCCCC2)cs1,-0.538%
17,N#CCNC(=O)[C@H](Cc1cc(I)c(O)c(I)c1)NC(=O)OCc1ccccc1,1.7%
18,N#CCNC(=O)C1CCCCN1S(=O)(=O)c1ccc(-c2ccsc2)cc1 (centres unmarked),1.7%
19,Cc1ccnc(NS(=O)(=O)c2ccc(Cl)cc2)c1,-1.42%
20,CCCNC(=O)CSc1cn(CC(=O)N2CCOCC2)c2ccccc12,3.74%
21,CCC(C)NC(=O)C(Sc1ccccc1)c1ccccc1 (centres unmarked),4%
22,O=C1N=C(N2CCOCC2)S/C1=C/c1cc(Br)ccc1O,16.3%

row,SMILES,% Inhibition @ 10 uM
1,CC(C)c1ccc(NC(=O)C23CC4CC(C2)CC(n2cncn2)(C4)C3)cc1,0.214%
2,Cc1nc(SCC(=O)NC(C)c2ccccc2)[nH]c1Cc1ccc(O)cc1 (centres unmarked),4.31%
3,O=C1CCCc2c1[nH]c1ccc(Oc3ccccc3)cc21,2.38%
4,O=C(Cc1ccccc1)N1CCN(Cc2ccc(Br)cc2)CC1,-1.04%
5,Cc1nc2nc(N3C(=O)c4ccc(C(=O)O)cc4C3=O)nn2c(O)c1Cl,-1.31%
6,CCCNC(=O)Cn1ncc2c3ccccc3n(Cc3cc(C)ccc3C)c2c1=O,-7.1%
7,Cn1cccc1Cc1nnc(SCC(=O)N2CCCCC2)n1-c1ccccc1,-4.97%
8,COc1cc(CNc2ccc3[nH]c(O)nc3c2)cc(Cl)c1OCC(=O)NC1CCCCC1,-4.63%
9,CCOc1ccc(-c2cc(CCCC(=O)NCc3ccc4c(c3)OCO4)no2)cc1,-7.13%
10,CC1CCN(C(=O)Cn2cnc3c(nnn3Cc3ccc(F)cc3)c2=O)CC1,1.24%
11,CC(C)CN1C(=O)c2ccccc2C(C(=O)O)C1c1cccs1 (centres unmarked),-3.31%
12,CC(C)CNS(=O)(=O)c1ccc(OCC(=O)N2CCC(C(N)=O)CC2)cc1,3.04%
13,CCc1ccc(N2C(=O)C(Cl)=C(N3CCN(C)CC3)C2=O)cc1,0.674%
14,Cc1nnc2c(N3CCCCC3C)nc3ccccc3n12 (centres unmarked),0.147%
15,O=C(NCc1ccco1)c1cc2nc(-c3ccccc3)cc(C(F)(F)F)n2n1,3.25%
16,Cc1cc(-c2ccc(NC(=O)C3CC3)c(C)c2)ccc1NC(=O)C1CC1,4.83%
17,CCSc1cc(N2CCCC2)nc(-c2ccc(F)cc2)n1,-1.55%
18,Cn1c(=O)c2c(-c3ccc(Br)cc3)n(Cc3ccco3)cc2n(C)c1=O,7.04%
19,COc1cccc(C(=O)N2CCN(Cc3ccc(OC)c(Br)c3)CC2)c1,-2.34%
20,N#CC1(NC(=O)[C@H](CC2CCCCC2)N[C@@H](c2cccc(Br)c2)C(F)(F)F)CC1,-3.14%
21,CCC(=O)N1CCN(CC/N=C/C2=C(O)CC(c3ccccc3)CC2=O)CC1 (centres unmarked),-1.07%
